Results: the supplement of paper PMC10126150
Sequences with one replicate were seen in a single cluster, so their values are uncertain.

Tested on: ATP
Experiment: switch fluorescence ratio, 500 uM ATP over buffer (Cy3 cluster intensity, sum of 5 cycles each) (fold (ratio)); higher = stronger signal-on switching upon ATP binding; sequences stand for … in TCGTCGGCAGCGTCAGATGTGTATAAGAGACAGTTTTTTTTTTTTTTTTTTTTTTTTT…TC
Conditions: aptamer strand: ATP DNA aptamer (quencher-CACCTGGGGGAGTATTGCGGAGGAAGG + anchor), 100 nM annealed; ATP concentration: 500 uM; one replicate
Outline: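 Imaging in selection buffer was followed by imaging after 15 min with 500 uM ATP at 22 °C, for Cy3-labelled switching-strand clusters annealed to 100 nM quencher-labelled ATP aptamer on a modified Illumina MiSeq flow-cell. Five of these buffer/ATP cycles ran, separated by NaOH stripping and re-annealing. The fluorescence ratio per cluster is summed target-cycle over summed buffer-cycle Cy3 intensity, averaged per switch-domain sequence; clusters outside 100-1000 RFU were removed.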
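Also: ATP exposure 15 min at 22 °C before imaging.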

| Sequence | switch fluorescence ratio |
| --- | --- |
| ACGTACAGTT | 1.39 |
| GGCGACAGCC | 0.989 |
| CCTACCGAGT | 1.55 |
| CGCCCTAAC | 1.45 |
| GGACCACG | 0.95 |
| TCGGACGACG | 1.07 |
| GCGAAATGCA | 0.977 |
| CTTATCACCC | 0.974 |
| TGTGTTTGTA | 0.998 |
| TTGTGTCCAG | 0.95 |
| GGTTCTAAGT | 1.01 |
| CATGCATTTG | 0.973 |
| ATGCGGCGCA | 1.02 |
| TAGAGTCTTG | 1.02 |
| CGTCGCGGGG | 0.976 |
| GCGGCTGAT | 0.984 |
| CGAAAAAGCA | 1.26 |
| GGGTCCTGTA | 1.08 |
| TATCTGCAGA | 0.992 |
| CCCATTAGCA | 1.16 |
| GGCAGTAGAG | 0.974 |
| CAACCGACGA | 1.9 |
| AAGGATAGCG | 1.08 |

| Sequence | switch fluorescence ratio |
| --- | --- |
| GTGTGAGTCC | 1.05 |
| AAGAAAAACA | 0.987 |
| CGCGGGTGCT | 0.996 |
| GTAAATTCA | 0.996 |
| CGTCAGTGCG | 0.997 |
| TCCGGCGGCT | 1.03 |
| CCACAGAGGT | 1.07 |
| AAAGACCCCT | 1.04 |
| GTCTCAGGCA | 1.08 |
| CGTTGCCTAT | 0.973 |
| ACATAACTGC | 1.09 |
| CGCGACGTTC | 1.11 |
| CGACCCTCGC | 1.18 |
| TCGTAGAATG | 1.01 |
| GGATTATTGC | 0.96 |
| CTACGGGTTA | 1.05 |
| AATGTTTATA | 0.955 |
| AGCTACGGGG | 1.04 |
| TTGTGTTGCT | 0.981 |
| ATATTTTCTT | 1.02 |
| TCGAGGTATT | 0.987 |
| GAATATGACT | 1.04 |
| TCTTATCGTC | 1 |

| Sequence | switch fluorescence ratio |
| --- | --- |
| AATGCTGAT | 0.985 |
| CTTGAGTT | 1 |
| ATGTTGACAG | 1.02 |
| GGAATAGCCC | 0.989 |
| TAACGAGAAA | 1.07 |
| TGTTAGTT | 0.984 |
| GGACCGGGG | 0.949 |
| TCTCCCTTAG | 1.31 |
| CGACTTGATA | 1.07 |
| CAGCATTCTC | 2.68 |
| GCTAATTTCT | 1.03 |
| AGCCACGGGA | 1.08 |
| TCTAACGGG | 1.04 |
| ACAAATGGTG | 1.09 |
| CTCAGCAT | 2.71 |
| TCAACAATTT | 0.99 |
| TCAAGGTTGA | 0.989 |
| TGTGATATTT | 1.02 |
| GAGTCTACCG | 0.994 |
| GTCGGCTGGA | 1.04 |
| GGGCTTGTCA | 0.992 |
| TCTGAGTATT | 1.01 |
| GACGACCCT | 1.2 |

| Sequence | switch fluorescence ratio |
| --- | --- |
| GAAATGGCCA | 0.997 |
| TAATGGGGTG | 1.08 |
| CATGGCCCCA | 1.02 |
| GCGTCATGGC | 1.02 |
| TGATCTTGGT | 1.03 |
| TAGCATGCGT | 0.962 |
| CGCGTGGTGC | 1.04 |
| CGAAGTATGA | 1.01 |
| CGGATTGAGG | 0.933 |
| ATATTTAGGC | 1.04 |
| ATGGAGTCTG | 0.991 |
| TATCTGATTG | 0.962 |
| TTTCTCGCTC | 1.08 |
| TTATAACTTC | 1.1 |
| CCCAACGTAC | 1.95 |
| GTAACTGTGC | 0.935 |
| GGATCGGTGG | 1.06 |
| TGGGTTGCCT | 0.95 |
| ACGTGTCGG | 1.01 |
| AGTGAGTCCT | 0.995 |
| TGCATTTATC | 1.08 |
| CCAATGCTAA | 1.26 |
| TTTTCGTTG | 0.992 |

| Sequence | switch fluorescence ratio |
| --- | --- |
| TGGATTACGA | 1.01 |
| GCCACAATAG | 2.09 |
| TCATTTTGA | 0.975 |
| CAATGTTAGT | 1.01 |
| TGGGGTTGA | 1.06 |
| GCCGGTGTCT | 1 |
| CGGGAGTTCC | 1 |
| ACAATTTCCT | 1.08 |
| CGAAGGTTG | 1.04 |
| CATAGTTTAC | 1.04 |
| AATTAGACTG | 0.969 |
| TCTGGGGCAT | 1.1 |
| AATATGCACA | 1.01 |
| CGTCACCGGT | 1.05 |
| GCTGGGCGAA | 0.992 |
| CCTCGTGGTG | 1.37 |
| GGAAAGATTA | 0.993 |
| TGTTTAGCGG | 0.986 |
| ATTGGGGAGT | 1.01 |
| GTTTACCTTT | 0.996 |
| CGCTCAGAGT | 1.05 |
| GTTCCCTAA | 1.02 |
| GCCGGTATTA | 0.991 |

| Sequence | switch fluorescence ratio |
| --- | --- |
| TGATTCCAGG | 1.17 |
| ATTCGGGCA | 0.912 |
| TAGTACGGG | 0.999 |
| ATGAGCAATT | 1.78 |
| TCTTGCAACA | 1.07 |
| CTCGCCGTAG | 1.05 |
| TTTTTGGGT | 0.954 |
| AGTATGATTG | 0.959 |
| AACGGTACGT | 0.979 |
| CTCAGTGCCG | 1.01 |
| TGTCTTGCGG | 0.996 |
| ATCGACGGTC | 1.14 |
| ATCTTATGCT | 1.04 |
| TTGGCGAGAA | 0.988 |
| ATGTACAGGT | 1.09 |
| TCTCAAGCCC | 1.1 |
| CGAATTAGAT | 1.01 |
| AGCTGTTTGC | 1.04 |
| GAGAGGTAAT | 0.956 |
| ATTATATTGG | 0.958 |
| CGAATGATGC | 1.02 |
| AGGGGTGGAC | 1.06 |
| ATACGGTTCT | 1.06 |

| Sequence | switch fluorescence ratio |
| --- | --- |
| TAGGCGAAGG | 1.03 |
| GTGTAATTCA | 0.968 |
| TAATTGTAAA | 1.02 |
| CCAAGGCCCT | 1 |
| TTTTTTCG | 0.955 |
| TTTTGGTCTA | 0.978 |
| ACGAGATGGG | 1.03 |
| CATAGAATTC | 1.02 |
| TATTCCCCCT | 1.18 |
| AATTCTGCAC | 1.04 |
| AAGAGAAACG | 1.02 |
| TTGAGTCTAG | 1.02 |
| CCGTTGCGCA | 2.12 |
| GGAGTTGGGC | 0.861 |
| GCGATAAGAG | 1.1 |
| CGGATATATC | 0.983 |
| TCCGTGATTG | 1.27 |
| TCCCCGGTTA | 1.02 |
| TTAGAGCGGA | 1.03 |
| TGTATTAGGC | 0.985 |
